Results as given in publication PMC9911399, “Two distinct binding modes provide the RNA-binding protein RbFox with extraordinary sequence specificity”.
Where a chain is given by its changes, count along the chain named. The list shows a part of the results.

T1: RBFOX1 RRM (Homo sapiens, UniProt Q9NWB1 109-208)
T1 sequence: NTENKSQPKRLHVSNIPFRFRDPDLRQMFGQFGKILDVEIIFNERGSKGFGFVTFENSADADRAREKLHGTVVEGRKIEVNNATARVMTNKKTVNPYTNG

B1: CGCACAU (DNA:RNA)
RNA: GGGAGACCGGAAUUCAGAUUGUCCCGCACAUUUAAAUCCCGUCGUAGCCACCA
DNA 1: CAATCTGAATTCCGGTCTCCC
DNA 2: TGGTGGCTACGACGGGATT
B2: GCCCGAC (DNA:RNA)
RNA: B1 RNA with C25G, G26C, A28C, C29G, U31C
DNA 1: CAATCTGAATTCCGGTCTCCC
DNA 2: TGGTGGCTACGACGGGATT
B3: AGCCCUG (DNA:RNA)
RNA: B1 RNA with C25A, A28C, A30U, U31G
DNA 1: CAATCTGAATTCCGGTCTCCC
DNA 2: TGGTGGCTACGACGGGATT
B4: CAUAUAA (DNA:RNA)
RNA: B1 RNA with G26A, C27U, C29U, U31A
DNA 1: CAATCTGAATTCCGGTCTCCC
DNA 2: TGGTGGCTACGACGGGATT
B5: GCUGAAC (DNA:RNA)
RNA: B1 RNA with C25G, G26C, C27U, A28G, C29A, U31C
DNA 1: CAATCTGAATTCCGGTCTCCC
DNA 2: TGGTGGCTACGACGGGATT
B6: GCCUCAG (DNA:RNA)
RNA: B1 RNA with C25G, G26C, A28U, U31G
DNA 1: CAATCTGAATTCCGGTCTCCC
DNA 2: TGGTGGCTACGACGGGATT
B7: UCCUCUG (DNA:RNA)
RNA: B1 RNA with C25U, G26C, A28U, A30U, U31G
DNA 1: CAATCTGAATTCCGGTCTCCC
DNA 2: TGGTGGCTACGACGGGATT
B8: AACAGCA (DNA:RNA)
RNA: B1 RNA with C25A, G26A, C29G, A30C, U31A
DNA 1: CAATCTGAATTCCGGTCTCCC
DNA 2: TGGTGGCTACGACGGGATT
B9: CCGUGAU (DNA:RNA)
RNA: B1 RNA with G26C, C27G, A28U, C29G
DNA 1: CAATCTGAATTCCGGTCTCCC
DNA 2: TGGTGGCTACGACGGGATT
B10: CUCUAAU (DNA:RNA)
RNA: B1 RNA with G26U, A28U, C29A
DNA 1: CAATCTGAATTCCGGTCTCCC
DNA 2: TGGTGGCTACGACGGGATT
B11: AGGGAGU (DNA:RNA)
RNA: B1 RNA with C25A, C27G, A28G, C29A, A30G
DNA 1: CAATCTGAATTCCGGTCTCCC
DNA 2: TGGTGGCTACGACGGGATT
B12: CUAGAGU (DNA:RNA)
RNA: B1 RNA with G26U, C27A, A28G, C29A, A30G
DNA 1: CAATCTGAATTCCGGTCTCCC
DNA 2: TGGTGGCTACGACGGGATT
B13: AACAUUU (DNA:RNA)
RNA: B1 RNA with C25A, G26A, C29U, A30U
DNA 1: CAATCTGAATTCCGGTCTCCC
DNA 2: TGGTGGCTACGACGGGATT
B14: GCAUGAU (DNA:RNA)
RNA: B1 RNA with C25G, G26C, C27A, A28U, C29G
DNA 1: CAATCTGAATTCCGGTCTCCC
DNA 2: TGGTGGCTACGACGGGATT
B15: GCGAAAA (DNA:RNA)
RNA: B1 RNA with C25G, G26C, C27G, C29A, U31A
DNA 1: CAATCTGAATTCCGGTCTCCC
DNA 2: TGGTGGCTACGACGGGATT
B16: GGCGUCA (DNA:RNA)
RNA: B1 RNA with C25G, A28G, C29U, A30C, U31A
DNA 1: CAATCTGAATTCCGGTCTCCC
DNA 2: TGGTGGCTACGACGGGATT
B17: GCGUUUA (DNA:RNA)
RNA: GGGAGACCGGAAUUCAGAUUGUCCGCGUUUAUUAAAUCCCGUCGUAGCCACCA
DNA 1: CAATCTGAATTCCGGTCTCCC
DNA 2: TGGTGGCTACGACGGGATT
B18: GAUGAUC (DNA:RNA)
RNA: B17 RNA with C26A, G27U, U28G, U29A, A31C
DNA 1: CAATCTGAATTCCGGTCTCCC
DNA 2: TGGTGGCTACGACGGGATT
B19: UGAGGCU (DNA:RNA)
RNA: B1 RNA with C25U, C27A, A28G, C29G, A30C
DNA 1: CAATCTGAATTCCGGTCTCCC
DNA 2: TGGTGGCTACGACGGGATT
B20: CUCGGGU (DNA:RNA)
RNA: B1 RNA with G26U, A28G, C29G, A30G
DNA 1: CAATCTGAATTCCGGTCTCCC
DNA 2: TGGTGGCTACGACGGGATT

Target: T1, RBFOX1 RRM
Assay: EMSA; HiTS-Eq, 1 nM pool, 10 min; buffer printed only for the single-RNA assays: 10 mM Tris pH 7.5, 150 mM NaCl, 3.4 mM EDTA, 0.001% NP-40, 30 C
Conditions: tags: His6 N-terminal (pET28a); label: 5' 32P
Procedure, shortened: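 Purified RbFox RRM, wild type or mutant, was incubated for 10 min in 50 µL with 1 nM of a 5′-radiolabelled RNA pool carrying 7 randomized nucleotides, whose flanks were annealed to DNA oligonucleotides, over a series of increasing protein concentrations. Unbound RNA was resolved on 8% native PAGE, cut out, reverse-transcribed, barcoded by PCR and sequenced on an Illumina HiSeq 2500. Relative association constants were derived from changes in read counts for each RNA species versus the control reaction and normalised to the cognate motif.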

Row | Binder | binding signal
1 | B1 | 0.00748 KA relative to UGCAUGU
2 | B2 | 0.0146 KA relative to UGCAUGU
3 | B3 | 0.0112 KA relative to UGCAUGU
4 | B4 | 0.00105 KA relative to UGCAUGU
5 | B5 | 0.0215 KA relative to UGCAUGU
6 | B6 | 0.0106 KA relative to UGCAUGU
7 | B7 | 0.0167 KA relative to UGCAUGU
8 | B8 | 0.00394 KA relative to UGCAUGU
9 | B9 | 0.0115 KA relative to UGCAUGU
10 | B10 | 0.00215 KA relative to UGCAUGU
11 | B11 | 0.0181 KA relative to UGCAUGU
12 | B12 | 0.0088 KA relative to UGCAUGU
13 | B13 | 0.00104 KA relative to UGCAUGU
14 | B14 | 0.626 KA relative to UGCAUGU
15 | B15 | 0.00747 KA relative to UGCAUGU
16 | B16 | 0.0121 KA relative to UGCAUGU
17 | B17 | 0.0076 KA relative to UGCAUGU
18 | B18 | 0.0209 KA relative to UGCAUGU
19 | B19 | 0.0155 KA relative to UGCAUGU
20 | B20 | 0.00166 KA relative to UGCAUGU
